Measurements: PubChem BioAssay AID624202 (National Center for Advancing Translational Sciences (NCATS), 2012)
The campaign covered roughly 380,000 compounds. About 4,000 (1.1%) were called active. Inconclusive means that the source gave no clear call. Such entries were picked first, then a sample of the others. Calls come from the whole dose curve; as a rule, active = well fitted activation curve with a large enough effect; inconclusive = small, poorly fitted or top-dose-only effect; inactive = no such curve, though single readings can be large or run the other way. Potencies of inconclusive entries are doubtful fits and often do not repeat.

Experiment: qHTS Assay to Identify Small Molecule Activators of BRCA1 Expression; note: nearly all actives have a fitted effect of over 80% in size
Details: MCF7-BRCA1-FFLuc reporter, luminescence, 48 h; activation: at 46.1 µM (top of the series), scaled: vehicle 0%, 10 µM genistein 100% unless noted
Procedure, shortened: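 Luminescence from a BRCA1-driven firefly luciferase in MCF7 cells was read after 48 h compound exposure at 37 C. Data normalized against DMSO and a 10microM genistein activation control, then curve-fitted across the titration.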
Potency is the fitted concentration of half-maximal effect; tags give direction and shape of the fitted curve.

Row | Structure (SMILES) | Potency | activation
1 | NC(=O)C1CCN(c2ccc3c(c2)S(=O)(=O)c2ccccc2C3=O)CC1 | inconclusive: 1.41 µM [activator, full curve, poor fit] | 
2 | O=C(NC(=S)N1CCN(C(c2ccccc2)c2ccccc2)CC1)c1ccc(S(=O)(=O)N2CCOCC2)cc1 | inactive | 
3 | O=C(NCC1CCCO1)c1cc(-c2ccccc2F)no1 (configuration not stated) | active: 12.6 µM | 
4 | Cc1cc(CN(C)C(=O)CCc2nnc(Cc3cccc(C(F)(F)F)c3)o2)on1 | inconclusive: 35.5 µM [activator, single point] | 
5 | C[C@H]1CN([C@@H](C)CO)C(=O)CCCn2nncc2CO[C@H]1CN(C)C(=O)c1cc(-c2ccccc2)on1 | inactive | 
6 | O=C(COC(=O)c1cccc(Br)c1)NCCNC(=O)COC(=O)c1cccc(Br)c1 | inactive | 
7 | O=C(c1ccc2c3n(nc2c1)-c1ccccc1CO3)N1CCCCC1 | inconclusive: 3.16 µM [activator, partial curve, poor fit] | 
8 | CN1CCCN(C(=O)/C=C/c2ccc(Cl)cc2Cl)CC1 | inactive | 
9 | S=C(NCCc1ccccc1)Nc1ncccn1 | inconclusive: 12.6 µM [activator, partial curve, poor fit] | 
10 | Cc1ccc(Cn2c(SCCN3CCCCC3)nc3c2c(=O)[nH]c(=O)n3C)cc1 | inactive | 
11 | O=C(NCc1ccccn1)c1cc(-c2ccccc2Cl)on1 | active: 10 µM | 
12 | COc1ccccc1N1CCN(C(=O)C2CCN(S(=O)(=O)c3c(C)noc3/C=C/c3ccc(C)cc3)CC2)CC1 | inactive | 
13 | COc1ccc(-c2cc(=O)oc3c(C)c(OC(C)C(C)=O)ccc23)cc1 (configuration not stated) | inactive | 
14 | CN(C)c1ccc(C(=O)/C=C/c2ccc(Br)cc2)cc1 | inconclusive: 10 µM [activator, partial curve, poor fit] | 
15 | CC(=Nc1ccc(C)cc1)c1sc2ccccc2c1O | inconclusive: 0.631 µM [activator, full curve, poor fit] | 
16 | CCC(=O)NCC(=O)OCC(=O)c1ccccc1 | inactive | 
17 | COc1ccc(/C=N/Nc2ncccc2[N+](=O)[O-])c(OC)c1 | active: 14.1 µM | 
18 | CC(=O)n1nc(-c2ccco2)nc1SCc1ccccc1 | active: 11.2 µM | 
19 | CCn1nc(NS(=O)(=O)c2ccc(F)cc2)c2cc3cccc(C)c3nc21 | inactive | 
20 | CCn1nc(C)c(/C=N/NC(=O)Cn2nccc2C)c1C | inconclusive: 11.2 µM [activator, partial curve, poor fit] | 
21 | CC(C)(C)c1cc(NC(=O)c2ccco2)no1 | inconclusive: 1.12 µM [activator, full curve, poor fit] | 
22 | COc1ccccc1-c1ccc(C(=O)O)o1 | inconclusive: 20 µM [activator, partial curve, poor fit] | 
23 | O=C(c1cc([N+](=O)[O-])ccc1Cl)N1CCc2ccccc21 | inactive | 
24 | CNc1nc(-c2ccc([N+](=O)[O-])cc2)cs1 | active: 10 µM | 
25 | O=C(Nc1cccc(-c2nc3ncccc3o2)c1)c1sc2ccccc2c1Cl | inconclusive: 1 µM [activator, partial curve, poor fit] | 
26 | Clc1ccc(CCNc2nc3ccccc3c3nc(-c4ccccc4)nn23)cc1 | inactive | 

Row | Structure (SMILES) | Potency | activation
27 | CN(C)S(=O)(=O)c1ccc(C(=O)Nc2ccccn2)cc1 | active: 14.1 µM | 
28 | CC1CC(C)(C)NC(=S)N1CC(=O)NCc1ccc(Cl)cc1 (configuration not stated) | inactive | 
29 | CCOC(=O)c1sc(NC(=O)c2ccc(C)s2)cc1C | inconclusive: 1.26 µM [activator, full curve, poor fit] | 
30 | CC(=O)Oc1ccc(-c2nc(-c3cccnc3)no2)cc1 | inconclusive: 2.51 µM [activator, full curve, poor fit] | 
31 | c1ccc2c(C3OCC4(CCCCC4)CO3)cccc2c1 | inconclusive: 11.2 µM [activator, partial curve, poor fit] | 
32 | COC(=O)c1c(NC(=O)/C=C/C(=O)O)sc(Cc2ccccc2)c1C | inactive | 
33 | O=C(NCc1cccnc1)c1ccc(NC(=O)c2ccc(Br)cc2)cc1 | inactive | 
34 | Cc1cccc(Nc2nc(N)nc(CN3CCN(c4ccc(F)cc4)CC3)n2)c1 | inactive | 
35 | CC1CCCN(c2ccc(C(=O)NCCc3ccccc3)cn2)C1 (configuration not stated) | inconclusive: 2 µM [activator, partial curve, poor fit] | 
36 | O=C(Nc1cnc2sccn2c1=O)c1ccccc1Cl | inconclusive: 1.58 µM [activator, partial curve, poor fit] | 
37 | COc1ccc(C(=O)NNC(=O)C2CC=CCC2)cc1 (configuration not stated) | inconclusive: 10 µM [activator, partial curve, poor fit] | 
38 | COc1ccc(CNC(=O)Cc2cccs2)cc1 | inconclusive: 11.2 µM [activator, partial curve, poor fit] | 
39 | O=C(c1ccc2nc(Cc3ccccc3F)oc2c1)N1CCCC1 | active: 5.62 µM | 
40 | CCCCN(C=O)c1c(CC)nc2c(OCC3CCCCC3)cccn12 | inactive | 
41 | COc1cccc(/C=N/n2cnc3ccccc32)c1OC | inconclusive: 1.78 µM [activator, partial curve, poor fit] | 
42 | COc1cccc(C(=O)N2CCN(C(=O)c3cccc4ccccc34)CC2)c1OC | inactive | 
43 | O=c1oc2ccccc2nc1/C=C(\O)c1ccccc1 | active: 3.55 µM | 
44 | NC(=O)C1CCN(C(=O)c2cc3ccccn3n2)CC1 | inconclusive: 15.8 µM [activator, partial curve, poor fit] | 
45 | CN(C)c1ccc(C(=O)NNC(=O)C23CC4CC(CC(C4)C2)C3)cc1 | inconclusive: 12.6 µM [activator, partial curve, poor fit] | 
46 | Cc1ccc(C)c(OCC(=O)Nc2ccc(S(=O)(=O)Nc3ccccn3)cc2)c1C | inconclusive: 28.2 µM [activator, single point] | 
47 | CCN1CCN(c2ccc(NC(=O)c3ccc4c(c3)OCO4)cc2)CC1 | inconclusive: 14.1 µM [activator, partial curve, poor fit] | 
48 | Brc1ccc(OCc2cn3ccccc3n2)cc1 | inconclusive: 0.501 µM [activator, full curve, poor fit] | 
49 | O=C(/C=C1\SC(=O)NC1=O)Nc1ccc(F)cc1 | inactive | 
50 | CCOc1ccccc1NC(=O)Cn1nnc(C(=O)NCc2ccco2)c1N |  | inconclusive: -89.8% [activator]
51 | COC(=O)c1ccc(CNc2ccc(C(C)=O)cc2)cc1 | inactive | 
52 | CCc1nc2oc3ccc(C)cc3c(=O)c2cc1C(=O)OC | active: 6.31 µM | 

Row | Structure (SMILES) | Potency | activation
53 | Cc1cc(C(=O)CSc2ccc3c(c2)OCCO3)c(C)n1C1CC1 | active: 11.2 µM | 
54 | CCOc1ncccc1C(=O)OCc1nnc(-c2ccccc2)o1 | inconclusive: 22.4 µM [activator, single point] | 
55 | O=C(NNC(=O)c1cccs1)c1ccc2ccccc2c1 | inconclusive: 10 µM [activator, partial curve, poor fit] | 
56 | C/C(=C\C(=O)c1ccc(Br)cc1)Nc1ccc(Cl)cc1 | active: 2.82 µM | 
57 | COc1ccc(-n2c(SCC(N)=O)nc3c(oc4ccccc43)c2=O)cc1 | inactive | 
58 | CCCC(=O)Nc1sc(C(=O)Nc2cccc(N)c2)c(C)c1C(=O)OC | inconclusive: 1 µM [activator, full curve, poor fit] | 
59 | CC(=O)c1c(C)[nH]c(C(=O)Nc2cccc(S(=O)(=O)N(C)C)c2)c1C | inactive | 
60 | Cc1ccc(C)c(CNC(=O)Nc2ccccc2)c1 | active: 7.08 µM | 
61 | Cc1ccc(OCC(=O)O/N=C(\N)c2ccncc2)cc1C | inconclusive: 15.8 µM [activator, partial curve, poor fit] | 
62 | NC(=O)c1ccc(-c2noc(-c3ccccc3F)n2)cc1 |  | inconclusive: 44.5% [activator]
63 | S=C(N/N=C/c1ccc(Br)cc1)N1CCCCC1 | active: 8.91 µM | 
64 | COCCn1c(C)cc(C(=O)COC(=O)c2ccc(NC(=O)CC#N)cc2)c1C | active: 2.82 µM | 
65 | COc1cccc(NC(=O)C(=O)NCC2CCCN2S(=O)(=O)c2cccs2)c1 (configuration not stated) | inconclusive: 15.8 µM [activator, single point] | 
66 | COc1ccc(N2CCN(c3cnc4ccccc4n3)CC2)cc1 | inconclusive: 2 µM [activator, full curve, poor fit] | 
67 | Cn1nccc1C(=O)NC1CCCc2c1cnn2-c1ccc(C(C)(C)C)cc1 (configuration not stated) | inactive | 
68 | COc1ccc(N=Cc2sc(O)c3ccccc23)cc1 | inconclusive: 3.98 µM [activator, partial curve, poor fit] | 
69 | Cc1c(C(=O)OC2CCC(C)CC2)[nH]c2c1C(=O)CCC2 (configuration not stated) | inconclusive: 0.631 µM [activator, full curve, poor fit] | 
70 | CC(C)CC(=O)Nc1ccc2c(c1)oc1ccccc12 | inconclusive: 1.58 µM [activator, partial curve, poor fit] | 
71 | CCOC(=O)N1CCN(C(=O)CSCc2ccc(Cl)cc2)CC1 | inactive | 
72 | O=C(NCCc1c[nH]c2ccccc12)c1cnc2sccn2c1=O | inactive | 
73 | CCn1nc(NC(=O)C2CCCO2)c2cc3cc(C)ccc3nc21 (configuration not stated) | inconclusive: 8.91 µM [activator, partial curve, poor fit] | 
74 | N=c1oc2cc(O)ccc2cc1C(=O)Nc1nc2ccccc2s1 | inconclusive: 1.58 µM [activator, full curve, poor fit] | 
75 | Cc1nn2c(-c3ccccc3)ccnc2c1-c1ccccc1 | active: 7.08 µM | 
76 | CC(C)(C)C1CCC(=O)N(CCOc2ccccc2)CC1 (configuration not stated) | active: 12.6 µM | 
77 | O=C(CN1CCN(c2ccccn2)CC1)Nc1ccc2ccccc2c1 | inconclusive: 22.4 µM [activator, single point] | 
